Experimental data reported in publication PMC4336329 (PLoS ONE, 2015).
About 2,200 (0.71%) of roughly 310,000 compounds showed an effect of 50% or more. Effects have a minus sign here. The list shows a part of the results.

Target: human ether-à-go-go-related gene (hERG) potassium channel (human, UniProt Q12809)
Experiment: primary screen, population patch clamp on CHO cells stably expressing hERG

human ether-à-go-go-related gene (hERG) potassium channel, sequence (Q12809 whole entry, looked up): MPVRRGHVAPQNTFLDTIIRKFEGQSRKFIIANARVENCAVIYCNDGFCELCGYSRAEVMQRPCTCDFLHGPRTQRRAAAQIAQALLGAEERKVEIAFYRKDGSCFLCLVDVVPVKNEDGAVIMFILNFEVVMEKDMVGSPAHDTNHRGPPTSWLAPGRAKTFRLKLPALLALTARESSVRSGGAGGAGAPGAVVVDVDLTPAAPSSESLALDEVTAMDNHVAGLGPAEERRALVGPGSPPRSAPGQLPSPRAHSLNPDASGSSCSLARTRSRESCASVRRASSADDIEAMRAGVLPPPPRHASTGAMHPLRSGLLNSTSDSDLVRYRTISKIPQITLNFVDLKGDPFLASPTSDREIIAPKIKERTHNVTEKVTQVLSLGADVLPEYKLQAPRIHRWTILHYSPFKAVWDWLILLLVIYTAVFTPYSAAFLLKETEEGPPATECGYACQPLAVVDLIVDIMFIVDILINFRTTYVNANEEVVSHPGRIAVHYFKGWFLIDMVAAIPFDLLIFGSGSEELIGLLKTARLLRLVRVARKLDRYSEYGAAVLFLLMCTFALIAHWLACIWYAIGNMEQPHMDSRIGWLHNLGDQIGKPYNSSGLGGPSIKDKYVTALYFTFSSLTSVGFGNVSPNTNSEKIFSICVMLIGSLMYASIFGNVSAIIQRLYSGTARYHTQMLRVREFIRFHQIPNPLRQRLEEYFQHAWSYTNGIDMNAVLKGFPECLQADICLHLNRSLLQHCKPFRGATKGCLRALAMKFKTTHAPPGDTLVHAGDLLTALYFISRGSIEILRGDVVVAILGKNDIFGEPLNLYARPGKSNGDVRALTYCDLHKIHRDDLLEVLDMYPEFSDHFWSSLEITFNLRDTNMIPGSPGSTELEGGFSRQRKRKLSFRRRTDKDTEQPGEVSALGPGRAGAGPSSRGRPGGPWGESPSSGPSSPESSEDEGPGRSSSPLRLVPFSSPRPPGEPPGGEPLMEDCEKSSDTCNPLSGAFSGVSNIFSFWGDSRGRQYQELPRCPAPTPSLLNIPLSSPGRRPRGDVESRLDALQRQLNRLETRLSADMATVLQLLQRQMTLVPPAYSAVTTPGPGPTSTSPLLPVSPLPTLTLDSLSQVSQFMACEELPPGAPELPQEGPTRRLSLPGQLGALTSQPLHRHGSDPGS

Row | SMILES | hERG current change (%, negative = inhibition) at 1uM [%]
1 | CCOC(=O)[C@@H]1[C@H]2COc3ccc(Br)cc3[C@@H]2N2C(=O)N(c3ccc(OC)cc3)C(=O)[C@]12C | 12.9
2 | O=C(Nc1ccccc1F)c1ccc2ncsc2c1 | 10.8
3 | Cn1c(=O)[nH]c(=O)c2c1nc(NN)n2CCOc1ccccc1 | 17.7
4 | Nc1nc(N)c(C=Nc2ccc(Br)cc2)c(Nc2ccc(Br)cc2)n1 | 16.6
5 | CN(CC(=O)NCCc1ccccc1)S(=O)(=O)c1ccc(Br)cc1 | -0.488
6 | C=CCn1c(=O)c2ccccc2n2c(SCC(=O)/C(C#N)=C(\C)N)nnc12 | -3.17
7 | Cc1nc(C(=O)Nc2ccccc2)sc1C1(C)CC(c2cccc([N+](=O)[O-])c2)=NO1 (centres unmarked) | 8.71
8 | O=C(NC1(C(F)(F)F)NC(=O)N(c2ccccc2F)C1=O)c1ccncc1 (centres unmarked) | 11
9 | COC(=O)CS(=O)(=O)c1cc(Br)cc2c1N(C(C)=O)CC2 | 6.82
10 | CCC(=O)Nc1ccc(C(=O)CSc2nc3ccc(C)cc3[nH]2)cc1 | 10
11 | CCOc1ccc(S(=O)(=O)NCc2ccccn2)cc1NC(=O)c1ccccc1 | 1.91
12 | CC(=O)Nc1cccc(NC(=O)c2ccco2)c1 | 7.34
13 | COc1ccc(NC(=O)CN(C)C(=O)Cc2ccc3c(c2)CCC3)cc1 | 6.51
14 | COc1ccc(N(C)C(=O)c2ccc3nc(-c4ccccc4)c(-c4ccccc4)nc3c2)cc1 | 1.6
15 | Cc1c(C)n2c(SCC(=O)N3CCC(C)CC3)nnc2[nH]c1=O | 17.5
16 | COc1cccc(CNc2nnnn2C)c1OC | 13.8
17 | COc1ccc(CCNC(=S)NC2CCN(Cc3ccccc3)CC2)cc1 | -5.37
18 | CC(=O)Nc1ccc(S(=O)(=O)Nc2cccc(-c3csc(C)n3)c2)cc1 | 7.78
19 | COc1cc2c(cc1OC)C1=NC(=O)CN1C(SCc1ccccc1C)=N2 | 3.52
20 | O=C(NC1CCCCC1)C1CCN(c2nccs2)CC1 | 14.1
21 | COc1ccccc1Nc1ccc([N+](=O)[O-])cc1N | 20.2
22 | O=C(Nc1ccc(C(=O)N2CCC([NH+]3CCCC3)CC2)cc1)c1ccc(Br)o1.O=C(O)C(F)(F)F | 10.8

Row | SMILES | hERG current change (%, negative = inhibition) at 1uM [%]
23 | COc1ccc(/C=C/C(=O)OCC(=O)NCc2ccco2)c(OC)c1 | 6.09
24 | O=C(NC1CCCCC1)C(c1ccc2ncccc2c1)N(Cc1ccccc1)C(=O)c1cccs1 (centres unmarked) | -11.7
25 | CCCC[C@@H](CNC)NC[C@H](Cc1ccc(O)cc1)NCCc1ccc(OCC)cc1 | -0.35
26 | CCOC(=O)c1c(C)oc(/N=C/c2ccccc2O)c1C#N | 6.75
27 | CCOC(=O)c1oc2ccccc2c1NC(=O)c1cccs1 | 0.447
28 | CC(=O)c1c(C)[nH]c(C(=O)OCC(=O)Nc2ccc(C)cc2[N+](=O)[O-])c1C | 1.31
29 | CCOC(=O)CSc1ncnc2c1cnn2-c1ccccc1 | 4.26
30 | CC1Cc2ccccc2N1C(=O)CSc1nc2ccccc2o1 (centres unmarked) | 2.83
31 | S=C1NCCOCCOCCOCCOCCN1 | 3.3
32 | COc1ccc2oc(C(=O)NCc3cc(OC)c(OC)cc3OC)c(C)c2c1 | 9.41
33 | CCOc1cc(CN2CCN(C(=O)CC(C)C)CC2)ccc1OC.O=C(O)C(=O)O | -2.57
34 | CCCNc1cc(=O)n(C)c(=O)n1C | 30.6
35 | CCn1c(C(=O)N2CCC(Cc3ccccc3)CC2)cc2sccc21 | -1.46
36 | COc1cccc(N2CCN(C(=O)c3[nH]c(C)c(C(C)=O)c3C)CC2)c1 | 11.3
37 | O=[N+]([O-])c1ccccc1/C=N/n1c(-c2ccccc2)n[nH]c1=S | 10.3
38 | CC(C)c1nc(CNC(=O)C2CCC(=O)N(CCc3ccc(Cl)cc3)C2)no1 (centres unmarked) | -2.23
39 | CCN(CC)CCN(C(=O)c1ccc2c(c1)CCCC2)c1nc2ccc(F)cc2s1.Cl | 11.6
40 | Cc1cccc(OCc2n[nH]c(=S)n2-c2ccccc2)c1 | 6.06
41 | O=C1CCC2=C(CCCC2=O)N1 | 8.8
42 | COc1ccc(-n2nc(C(=O)Nc3cc(OC)c(OC)c(OC)c3)c3ccccc3c2=O)c(OC)c1 | 3.9
43 | CCNc1nc(NC(C)(C)C)nc(N2CCCCC2)n1 | 7.06
44 | O=C(CCCc1cccs1)Nc1nc2c(s1)CCCC2 | 5.09
